In publication PMC10668032:
The list shows a part of the results. At the low end of the ranking the order means little.

The sequences below were run against SIX1 homeodomain (reference allele) (UniProt Q15475) (assay: universal protein binding microarray). Details: Universal all-10-mer PBM (8x60K, AMADID 030236), 300 nM GST-tagged protein, Alexa Fluor 488 anti-GST; buffer, salt, pH and temperature not stated; high values mean tight binding; most listed sequences are background and not binding sites; double strand, one strand shown.

Sequence	binding signal [E-score]
CCTATTGC	0.0959
CCCCGCAG	-0.0265
AACCAGTT	-0.00702
CAGGTAGA	0.15
GGTTTCAA	0.0417
CCCTCGAC	0.182
AATAACTC	-0.0333
ACTCGTAC	-0.0432
CAGGTGTC	0.394
CTCGCGTA	0.0411
ACCAGATA	0.339
ATGGTACC	-0.129
CGAGGTTC	0.00267
ATAGAGGC	-0.17
ATTGTACA	-0.135
AGTGGTTA	0.148
GGCCATAC	0.0313
AGATCTCG	0.214
CGATAACA	0.16
AGAGGCGG	0.0228
GCGAATTA	-0.196
AGCTTAAT	-0.00192
CTTATATA	0.15
AGCATTAT	-0.0561
ACACGCCG	0.028

Sequence	binding signal [E-score]
CACGTGTA	-0.0559
CTAAGCCA	-0.209
CGTTTGAC	0.0285
AATACCTG	0.178
CGTTATCA	-0.0312
GGTTTATA	0.141
GCCCGTCC	-0.149
CGGACATA	0.127
ACGATCAT	0.186
TAGAGCCA	-0.186
AAGAATAA	-0.149
ATGGACTA	-0.12
AATACATT	-0.0234
TACTTTGA	0.00638
AGTAAGGC	-0.137
CCATAGAC	-0.0293
CCGTGGCG	-0.229
GCCCACAA	-0.122
GACGATAC	0.453
CTTAACGA	-0.0417
ATGATTCG	-0.0919
GGCATCGA	-0.00137
TCATCACA	-0.00938
AGTTAGTA	-0.0927
GTCTGCGA	-0.0682

Sequence	binding signal [E-score]
ACTACTTG	0.082
CCTTGAAC	-0.154
GGAGCTGA	-0.125
AGCAAACC	-0.0737
CAGTGTCG	0.0157
ATTGAGAC	0.212
GCGGGTCC	-0.0542
AGTTTTTC	-0.226
CTTATCTA	0.0552
GACTATCC	0.297
CGGGGGCC	-0.141
ACGTGTTC	-0.128
CTTTCATC	-0.146
ACAGGGTC	0.124
GCGGCTGA	-0.068
ATAGGGGG	0.223
GGGGTGAC	-0.23
ATAGCACC	0.127
AACAACGT	-0.216
CTGATGGA	0.0162
CGCGTGAA	0.0307
ACCCATCT	0.204
TCACGTGA	0.0665
ATCGGTAC	0.162
CCCCCGAC	0.107

Sequence	binding signal [E-score]
GCGCTGCC	-0.227
CTTTACCA	-0.162
ACTTATAT	0.144
TAACAGGA	-0.0464
AACTACTC	0.0396
ATCGCCAT	0.186
AATCTACA	0.0915
ATATGCCG	0.211
AGGTGCAC	0.0154
CTGCTGAA	-0.264
GTAGGCAA	0.0776
GTAGCTAA	-0.0447
ACGCTGAT	0.183
AAACTACG	-0.0962
CCCACTCG	-0.154
AGCACTCG	-0.0927
ACCAAACA	0.0783
GGTAGGGA	0.0948
AGGCGACC	-0.155
GTACCGCA	-0.0232
GGCACGAA	-0.193
AGTACCAC	-0.0344
CACCAATC	0.0887
AAAACCCG	-0.124
GATATCAA	0.453

Sequence	binding signal [E-score]
GAGAAGAA	-0.188
AGCTGCAT	0.00651
AGTCGCGG	0.0149
AGGGAGAA	-0.039
CGAAATAC	0.157
ACTCGCTG	-0.06
CATGACCA	-0.0852
AATAGCTG	-0.168
GGACTATA	0.0929
GAACCCCA	0.0943
ATAAGCGA	0.0691
AGCCTCAC	-0.148
GGTAATCA	-0.152
CAGGGTAC	-0.0175
ACGGGACC	-0.3
AAAGCTCA	-0.24
AGTACATA	0.066
ACGCATAA	-0.0512
AACGCGCT	-0.191
CCGGGCTA	0.0313
AATTCTTA	-0.249
TGAAGTAA	-0.15
CTGGTGCC	-0.243
CGAGCAAC	-0.0911
GCCGTGTA	0.102

Sequence	binding signal [E-score]
ACCATAGA	0.197
ATAGAGCC	-0.186
GGATCTTA	0.235
AAAATGCG	-0.291
CCTTGCGC	-0.172
CCTGACAG	0.0246
ACATAAGG	-0.251
TGTCGACA	-0.0857
CAACGTGG	-0.053
GCACACGC	-0.201
AACAGAGG	-0.158
CTCAACCA	-0.086
TAATTCAA	-0.0989
CGGAGCCG	-0.0525
GAGCACCA	-0.104
AAACCTAG	-0.014
ACACGCGC	0.0628
AACTATGG	-0.0672
ACCCTACC	0.0415
ACTTACTA	-0.131
AGCTGGGA	0.0439
CATACTTA	-0.0338
AATGATTA	0.0353
CCAGTCCC	-0.212
CGCGTGAC	-0.0266

Sequence	binding signal [E-score]
ATCTACGG	0.092
CGAGCGAC	-0.182
CTTCTATC	0.0246
GCTTTCAA	-0.26
CTAACCTA	-0.164
ATCCGGCA	0.314
TATACAAA	0.102
CATTTAGG	-0.316
AACGCCCA	-0.11
AATCCATC	0.259
CTCGACAG	-0.112
AAGCACAA	-0.161
CCAACGCG	-0.0913
AGGTGACG	-0.0351
CAGACCTC	-0.153
AGGATAAC	0.211
GCTATTCC	-0.0683
CATACTAG	0.139
GCGTTCGA	-0.206
AGTCCCCG	-0.0149
ACCACTTG	-0.0149
CGTTTCGC	-0.225
